One assay relates to CCRF-CEM leukemia. Put plainly: NCI anticancer screen, dose series, 48 h.
Another assay deals with SR leukemia. The experiment in a line: NCI anticancer screen, dose series, 48 h.

We go through one compound from PubChem BioAssay (NCI).

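Briefly, cells in 96-well plates were exposed to five compound concentrations for 48 h, and endpoints were estimated by linear interpolation. GI50: concentration for 50% inhibition of growth. At the TGI there is no net growth.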 Activity calls are given as the source filed them.

In the case of `CCOC(=O)c1ccc(N/N=C/c2cn(-c3ccc(S(N)(=O)=O)cc3)nc2-c2ccccc2)cc1`, the GI50 result in the assay on CCRF-CEM leukemia and in the assay on SR leukemia was “inactive” in each case. Moreover, the TGI in the assay on CCRF-CEM leukemia came to 9.81 µM; with SR leukemia it was 4.84 µM.
